# Source: paper PMC4336329 (PLoS ONE, 2015)
# In all, about 310,000 compounds went through this assay and about 14,000 (4.5%) showed an effect of 50% or more. Effects have a minus sign here. Some of the results follow.
# Biological target: human ether-à-go-go-related gene (hERG) potassium channel (human, UniProt Q12809)
# Experiment: primary screen, population patch clamp on CHO cells stably expressing hERG
# 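Further: peak tail current of the secondary pulse compared with the same well before compound.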
# human ether-à-go-go-related gene (hERG) potassium channel, sequence (Q12809 whole entry, looked up): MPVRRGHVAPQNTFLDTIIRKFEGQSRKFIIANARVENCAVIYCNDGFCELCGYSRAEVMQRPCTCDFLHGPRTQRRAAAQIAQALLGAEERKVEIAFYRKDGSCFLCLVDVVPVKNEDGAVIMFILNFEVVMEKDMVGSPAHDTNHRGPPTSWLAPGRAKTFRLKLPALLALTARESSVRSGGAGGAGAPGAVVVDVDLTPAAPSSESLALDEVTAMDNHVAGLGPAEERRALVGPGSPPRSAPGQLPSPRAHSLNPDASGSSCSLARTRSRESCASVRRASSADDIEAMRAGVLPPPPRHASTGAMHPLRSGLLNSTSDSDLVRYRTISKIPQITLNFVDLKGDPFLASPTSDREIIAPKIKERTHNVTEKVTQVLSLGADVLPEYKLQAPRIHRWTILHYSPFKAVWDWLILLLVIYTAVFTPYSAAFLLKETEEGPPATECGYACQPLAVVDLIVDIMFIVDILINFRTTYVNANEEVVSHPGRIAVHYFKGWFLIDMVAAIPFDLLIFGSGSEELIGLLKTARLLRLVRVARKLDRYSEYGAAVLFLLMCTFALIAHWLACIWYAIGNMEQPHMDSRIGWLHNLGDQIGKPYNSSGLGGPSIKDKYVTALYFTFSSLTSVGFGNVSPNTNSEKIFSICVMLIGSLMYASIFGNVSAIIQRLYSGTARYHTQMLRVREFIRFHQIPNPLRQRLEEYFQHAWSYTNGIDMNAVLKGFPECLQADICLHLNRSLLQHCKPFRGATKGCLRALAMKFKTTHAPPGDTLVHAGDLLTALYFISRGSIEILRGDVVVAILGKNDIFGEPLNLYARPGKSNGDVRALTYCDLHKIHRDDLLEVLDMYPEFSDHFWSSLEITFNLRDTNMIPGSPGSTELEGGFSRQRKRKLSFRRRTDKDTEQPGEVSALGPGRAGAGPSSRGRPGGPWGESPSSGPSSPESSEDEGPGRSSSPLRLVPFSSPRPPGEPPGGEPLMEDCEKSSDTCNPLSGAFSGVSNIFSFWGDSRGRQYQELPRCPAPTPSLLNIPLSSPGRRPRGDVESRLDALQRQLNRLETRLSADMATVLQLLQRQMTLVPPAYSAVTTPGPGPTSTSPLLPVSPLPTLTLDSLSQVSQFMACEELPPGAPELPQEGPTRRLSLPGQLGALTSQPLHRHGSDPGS
row,Compound,"hERG current change (%, negative = inhibition) at 10uM"
1,CCOC(=O)c1c(-c2ccccc2)csc1NC(=O)c1ccc(N2C(=O)CCC2=O)cc1,5.41%
2,CCCCN(C(=O)CN1CC(C)OC(C)C1)c1c(N)n(CC(C)C)c(=O)[nH]c1=O (stereo not drawn),9.06%
3,O=CC1=C(N2CCOCC2)/C(=C/c2ccc(Cl)cc2)CC1,9.85%
4,COc1ccc(/C=C2\SC(=O)N(CC(=O)Nc3ccccc3O)C2=O)cc1OC,9.72%
5,O=C(CSc1n[nH]c(-c2ccccc2Cl)n1)NC1CCCCC1,3.06%
6,CN(c1ccc(OC(=O)c2ccc(-n3cncn3)c([N+](=O)[O-])c2)cc1)S(=O)(=O)c1ccccc1,-16.2%
7,CCOC(=O)C(C)n1nc(/C=C/c2ccccc2)ccc1=O (stereo not drawn),-1.5%
8,Cc1sc2ncn(CC(=O)Nc3ccccc3F)c(=O)c2c1-c1ccccc1,-0.62%
9,CC(C)(C)C(=O)Nc1sc2c(c1C#N)CCC2,21.8%
10,CC(C)CC(=O)NC(=S)Nc1cccc(NC(=O)c2ccccc2Cl)c1,-8.32%
11,CC(=O)OCC(=O)[C@@]1(O)CC[C@H]2[C@@H]3CCC4=CC(=O)C=C[C@]4(C)[C@@]3(F)[C@@H](O)C[C@@]21C,6.6%
12,Cc1ccc(C)c(N2CCN(C(=O)c3ccc(Cl)c(NC4=NC5CS(=O)(=O)CC5S4)c3)CC2)c1 (stereo not drawn),6.26%
13,CCCN1Cc2cccc(C(=O)NC(CC(=O)OCC)c3ccc(OCC)c(OC)c3)c2C1=O (stereo not drawn),-31.2%
14,CCN1CCN(C(=O)C2c3cc(OC)c(OC)cc3C(=O)N(C)C2c2ccc(SC)cc2)CC1 (stereo not drawn),-14.3%
15,CCC1Oc2ccccc2N(CC(=O)NCCN2CCCC2)C1=O (stereo not drawn),2.28%
16,Cc1ccn(CCSCC(=O)O)n1,1.03%
17,CCOC(=O)c1cnn(C)c1NC(=O)c1ccc([N+](=O)[O-])cc1,-17.2%
18,CC(=O)N1CCN(CC(=O)Nc2ccc(C)c(F)c2)CC1.Cl,0.314%
19,C[C@]12CCC(O)CC1CCC1C2CC[C@]2(C)C(c3cc(C(F)(F)F)n[nH]3)CCC12 (stereo partly drawn),21.3%
20,CCN1CCN(c2nc3ccccc3s2)CC1,-12.5%
21,COc1ccc2sc(N(CCCN(C)C)C(=O)c3ccc(S(=O)(=O)N(C)Cc4ccccc4)cc3)nc2c1.Cl,-16.4%
22,CSc1nnc(-c2cccs2)n1-c1ccccc1,-5.91%

row,Compound,"hERG current change (%, negative = inhibition) at 10uM"
1,COc1ccc(C)cc1N(CC(=O)O)S(=O)(=O)c1ccc(C)cc1,17.1%
2,Cc1c(C)n(CC(O)CN2CCCCCC2)c2ccccc12 (stereo not drawn),-20%
3,CC(C)(O)C(=O)N/N=C\c1ccc(OC/C=C/c2ccccc2)cc1,20.4%
4,CC1CCC(NC(=O)c2cccc(S(=O)(=O)NCc3ccccc3)c2)CC1 (stereo not drawn),-49.2%
5,CCOC(=O)c1c(-c2ccccc2)nc2ccc(Cl)cn12,30%
6,O=C(OCC(=O)N1CCCC1=O)c1nc(Cl)c(Cl)c(Cl)c1Cl,-60.4%
7,Cc1cccc(-n2ncc3c2CCCC3NC(=O)CN2CCCC2=O)c1C (stereo not drawn),25%
8,CCn1c(=O)c([N+](=O)[O-])c(NCc2ccco2)c2ccccc21,2.31%
9,COc1ccc(CNC(=O)c2cc(C3CC3)nc3c2cnn3C(C)C)cc1OC,-2.6%
10,Cc1nc(NC(=O)C2CCCC2)sc1Cc1ccc2c(c1)OCO2,-21.6%
11,Brc1ccc(-c2noc(COc3ccc4ccccc4c3)n2)o1,-5.19%
12,Cc1ccccc1N1C(=O)C2ON(c3ccccc3)C(c3cccnc3)C2C1=O (stereo not drawn),-17.2%
13,Cc1ccccc1NC(=O)C1CCN(c2cnccn2)CC1,-14.7%
14,CCc1nnc(NC(=O)CCC(=O)N2CCN(C3c4ccccc4-c4ccccc43)CC2)s1,6.46%
15,Cc1cc(C2=NNC(=NC3CC3)SC2)c(C)n1-c1c(C)n(C)n(-c2ccccc2)c1=O.Cl,-6.65%
16,O=C(Nc1ccc2nccnc2c1)Nc1ccccc1Cl,17.8%
17,O=C(CSc1nnnn1-c1ccc(Cl)cc1)N1CCc2ccccc2C1,-39.3%
18,C[n+]1cccc(C(=O)Nc2ccccc2)c1.[Cl-],21%
19,O=C(NCc1cccs1)C1CC(=O)N(c2ccc(Cl)cc2)C1 (stereo not drawn),-40.7%
20,O=C(Nc1ccc(S(=O)(=O)Nc2ncccn2)cc1)c1ccco1,6.2%
21,COc1ccc(NC(=O)c2ccccc2Cl)cc1NC(=O)CN1CCOCC1,-5.99%
22,O=C(COc1ccc(Cl)cc1)N1CCN(c2ccc([N+](=O)[O-])c(N3CCCCC3)c2)CC1,2.92%

row,Compound,"hERG current change (%, negative = inhibition) at 10uM"
1,Cc1ccc(C(=O)Nc2ccc(Nc3ccccc3)cc2)cc1Br,-7.02%
2,COc1ccc(C)cc1NC(=O)Nc1cccc(C)c1,9.39%
3,COC(=O)CC(c1ccc(C#N)cc1)n1c(C)ccc1C (stereo not drawn),2.31%
4,Cc1ccc(-c2c(C#N)c(N)nc3c2CCCCCC3)o1,3.26%
5,O=C(NCCc1ccc(C(F)(F)F)cc1)C1COc2ccccc2O1 (stereo not drawn),6.12%
6,CCOC(=O)c1cccc(NC(=O)CSc2nnc(CNc3ccc(C)cc3)n2CC)c1,-20.6%
7,COCCn1c(SCC(=O)NC2CCCCC2C)nnc1-c1ccncc1 (stereo not drawn),3.08%
8,O=C(Cn1[nH]c(=O)c2ccccc2c1=O)NC1CCN(Cc2ccccc2)CC1,0.791%
9,C#CCNC(=O)C1=C[C@@H](c2ccc(C(F)(F)F)cc2)[C@H](CCCO)[C@@H](OCC)O1,-37.7%
10,O=C1CC(/C=C/c2ccncc2)=Nc2ccccc2N1,12%
11,Cc1ccc(C(=O)NC(=S)Nc2ccc(S(=O)(=O)N3CCN(C)CC3)cc2)cc1,0.896%
12,Cc1n[nH]c(C)c1S(=O)(=O)N1CCc2ccccc2C1,0.673%
13,OCc1ccccc1O[C@@H]1O[C@H](CO)[C@@H](O)[C@H](O)[C@H]1O,5.5%
14,COc1ccc(NC(=O)C2CC(=O)N(CCc3ccc(Cl)cc3)C2)cc1 (stereo not drawn),-24%
15,CCn1cc(C(C)NC(=O)Nc2ccccc2C(=O)OC)c(C)n1 (stereo not drawn),6.95%
16,CCN(CC)S(=O)(=O)c1ccc(F)c(C(=O)NCCCN2CCOCC2)c1,-11.7%
17,Cc1cc(C(=O)OCC(=O)Nc2cccc(F)c2)c(C)n1C1CC1,-2.59%
18,O=C(CNC(=O)c1ccccc1)OC(C(=O)Nc1cc(C(F)(F)F)ccc1Cl)c1ccccc1 (stereo not drawn),10.1%
19,CC(=O)SCCC(=O)Nc1ccccc1,23.4%
20,CC1(C)CC(CCC(=O)Nc2ccccc2Cl)C(=O)O1 (stereo not drawn),-3.46%
21,COC(=O)Cn1c2ccc(C)cc2c2nc(C)sc21,-7.39%
22,Cc1ccc(C)c(S(=O)(=O)NC(CC(C)C)C(=O)O)c1 (stereo not drawn),5.89%

row,Compound,"hERG current change (%, negative = inhibition) at 10uM"
1,CCCCN1C(=O)C2NN=C(C(=O)OCC)C2C1=O (stereo not drawn),7.51%
2,CC(=O)OCC1=C(C(=O)O)N2C(=O)C(NC(=O)c3ccc(COc4c(C)cccc4Cl)o3)C2SC1 (stereo not drawn),-2.23%
3,Cc1ccc(C)c(NC(=O)CN(C)C(=O)CSC(C)C(=O)Nc2cc(C)on2)c1 (stereo not drawn),16.9%
4,Cc1ccc(CNC(=O)C2CCCN2C(=O)Nc2cccc(Cl)c2)cc1 (stereo not drawn),6.49%
5,Cc1occc1C(=O)NNC(=S)NCC(C)C,4.47%
6,COc1ccc(-c2[nH]ncc2/C=N/NC(=O)c2ccncc2)c(OC)c1,13.8%
7,O=C(CSc1nc2c(c(=O)n1-c1ccc(F)cc1)SCC2)N1CCCC1,10.1%
8,COc1cccc(N2CN(CCc3ccccc3)CNC2=S)c1,9.83%
9,O=C(O)c1ccc2nc(C(F)(F)F)[nH]c2c1,-1.42%
10,COc1ccccc1/C=N/NC(=O)CSc1cc(C)nc2ccccc12,-5.68%
11,CCOc1ccccc1N(CC(=O)Nc1c(C)n(C)n(-c2ccccc2)c1=O)S(=O)(=O)c1ccccc1,-10.9%
12,COc1ccc2c(c1)c(/C=C/c1cc[n+](C)cc1)cn2C.[I-],12.9%
13,CCOCCCNC(=O)c1c[nH]c2ccc(OCC)cc2c1=O,-2.11%
14,CC1=C(C(=O)O)N2C(=O)C(NC(=O)c3nn(C)cc3[N+](=O)[O-])C2SC1 (stereo not drawn),17.5%
15,N=c1c2c3c(sc2ncn1CCN1CCOCC1)CCCC3,-16.9%
16,CN1CCN(c2ccc(S(=O)(=O)N3CCCCC3)cc2NC(=O)COc2ccc([N+](=O)[O-])cc2)CC1,-34.3%
17,O=S(=O)(NC1CCCCC1NS(=O)(=O)c1ccc(F)cc1)c1ccc(F)cc1 (stereo not drawn),-5.29%
18,COc1ccc(C(=O)Nc2ccc(NC(=O)c3cccs3)c(OC)c2)cc1Cl,-20.1%
19,Cc1ccc(/C=C(\C#N)C(=O)Nc2ccccn2)o1,7.01%
20,CCN(c1ccc(OC)cc1)S(=O)(=O)c1cc(-c2cc(C)no2)ccc1OC,-15.5%
21,Cc1ccc2c(C)c(C(=O)N(Cc3ccc(F)cc3)C3CCS(=O)(=O)C3)oc2c1 (stereo not drawn),-2.08%
